Assay results published in ChEMBL document CHEMBL4888484, “Replenishing the malaria drug discovery pipeline: Screening and hit evaluation of the MMV Hit Generation Library 1 (HGL1) against asexual blood stage Plasmodium falciparum ,using a nano luciferase reporter read-out” (2022).
Screen size: about 150,000 compounds; about 540 (0.36%) showed an effect of 50% or more. The list shows a part of the results.

Test system: Plasmodium falciparum
Assay: Primary screen in NF54 nanoGlo assay, in single point, at 2uM, 72h; a lower Z score goes with more inhibition
Assay type: functional, Erythrocyte
Conditions: timepoint 72 hour

Compound	% Inhibition [%]	Z score
COc1ccccc1C(=O)N1CCN(c2nc3c(s2)c(C)nn3C)CC1	-1	0.12
COC(=O)c1ccc(NC(=O)NCC2(C)OCCCO2)cc1Cl	-5	0.55
Cc1cccnc1NCCn1ccnc1-c1ccsc1	-9	1.71
C[C@H](O)CCNC(=O)Nc1nc(-c2cccs2)ns1	-5	0.62
CCC(C(=O)NC1CCN(C2CCOC2)CC1)c1ccccc1 (stereo not drawn)	-21	2.3
O=C(N[C@H]1CS(=O)(=O)C[C@@H]1O)c1ccc2nc(-c3ccccc3)cn2c1	0	0.03
CCc1nc(NCCc2cn3cccnc3n2)c2ccsc2n1	-2	0.3
Cc1cc([C@H](C)NCCc2ccccn2)oc1C	9	-1.67
FC(F)(F)Cn1cc2c(n1)[C@@H](Nc1ccc(C(F)(F)F)nn1)CCC2	-7	0.62
Cc1cc(C)n(CC(=O)Nc2ccc(F)cc2F)c(=O)c1-c1nc(-c2ccc3c(c2)OCO3)no1	-1	0.08
CCC[C@@](C)(CNC(=O)C1=CCCC1)NC(=O)C1=CCCC1	-4	0.56
CCC1CN2CCCC2CN1C(=O)Nc1cccc2[nH]ccc12 (stereo not drawn)	0	0.06
Cn1ccnc1-c1ccc(C(=O)NCCc2ncnn2C)cc1	-8	1.5
O=S(=O)(C1COC1)N1CCCCC[C@H]1c1noc(-c2ccccc2)n1	-8	1.19
CCC(=O)N(Cc1c(-c2ccccc2)noc1N1CCOCC1)C1CC1	1	-0.12
COC1CCN(C(=O)C[C@]2(c3ccccc3)CC(=O)N(CCCOc3cccnc3)C2=O)CC1	14	-1.96
COc1ccc(CNC(=O)[C@H]2CCCN(c3nccn4nc(-c5ccc(F)cc5)cc34)C2)cc1OC	0	0.04
CC(=O)N1CCN([C@@H](C)C(=O)N2CCN(c3ccccc3)CC2)CC1	3	-0.37
CC1CCN(C(=O)NCCN2C(=O)CCC2=O)CC1	-9	1.36
O=S(=O)(Nc1nc2ncccn2n1)c1c(Cl)cccc1C(F)(F)F	5	-0.66
CCOC(=O)c1cc(NC(=O)Nc2c(C)n(C)n(-c3ccccc3)c2=O)cn1C	12	-1.46

Compound	% Inhibition [%]	Z score
CCOc1cc(CNC(=O)C(C)(C)C)ccc1OC	-9	1.54
Cc1nc(C)c(S(=O)(=O)Nc2n[nH]c3cc(F)ccc23)s1	-8	0.83
CN(Cc1ccncc1)Cc1c[nH]nc1-c1cccnc1	-10	2.03
Cc1n[nH]c(C)c1[C@@H](C)C(=O)N1CCN(CCC(C)C)CC1	-10	1.6
CC[C@H](C)N(Cc1c(C)nn(-c2cccc(F)c2)c1N1CCN(CC)CC1)C(=O)NC(C)(C)C	8	-0.96
CCc1csc(CNC(=O)c2nn(C)cc2Cl)n1	-7	0.77
O=C([C@H]1CC(=O)N(c2ccccc2)C1)N1CCN(C(c2ccccc2)c2ccccc2)CC1	-10	1.16
COc1nc(N[C@@H](C)Cc2cccc(C)n2)ncc1F	-7	0.86
CC(C)Cc1ncc2c(n1)CN(CC(=O)Nc1ccc(C(N)=O)cc1)C2	-1	0.23
CN1C[C@@H](NS(=O)(=O)c2ccccc2C(C)(C)C)CCC1=O	1	-0.25
COCC(=O)Nc1cc(C(=O)N(C)CC(C)C)c2c(c1)ncn2CCc1ccccc1	7	-0.86
CC(C)CNC(=O)c1ccc(Cl)cc1Cl	2	-0.31
O=C1NC2(CCN(S(=O)(=O)c3ccccc3F)CC2)N=C1c1ccccc1	-13	2.04
O=C(Nc1ccc(OCC2CCCCC2)cc1)N1CC[C@@H](O)C1	-2	0.27
C[C@H]1COc2ccc(CN3CCOCC3)cc2CN1C(=O)COc1ccc(F)cc1	0	-0.01
Cc1ccccc1N1C[C@@H](C(=O)N2CCc3ccccc32)CC1=O	7	-0.97
O=C(C[C@@H]1NC(=O)N(CCc2c[nH]c3ccccc23)C1=O)NCc1cccnc1	7	-0.86
O=C(c1cnc2ccccn2c1=O)N1[C@@H]2CC[C@H]1C[C@@H](O)C2	-7	0.83
O=C([C@@H]1CC(F)(F)CN1C(=O)c1cc(F)ccc1Cl)N1CCc2ccccc2C1	-17	2.94
O=C(CC[C@H]1CCCOC1)Nc1cnns1	1	-0.08
CC1(C)CCc2ccccc2[C@H]1Nc1nccn2cnnc12	-5	0.64

Compound	% Inhibition [%]	Z score
O=C(Nc1ccc(-c2nccn2C(F)F)cc1)NC1CC2CCC1O2 (stereo not drawn)	-7	0.64
Cc1conc1CN1CCCC[C@H]1C1(CN)CCC1	-12	2.34
Cn1nnc(-c2cccc(NC(=O)CCc3nc4ncccc4[nH]3)c2)n1	9	-1.34
CC(C)(C)OC(=O)N1CCC(CN2CCCC[C@H]2C(N)=O)CC1	-6	0.63
CCOc1cccc(C(C)NCC(=O)N2CC(C)OC(C)C2)c1 (stereo not drawn)	-10	1.14
COc1cccc(-c2cn3c(n2)N(C(=O)Cn2ccnc2)CCC3)c1	-7	1.12
Cc1nc(C(C)C)sc1CN[C@H]1CCOC1	5	-0.78
CCN(Cc1noc(C)n1)[C@@H](C(=O)O)c1cc(C)c(OC)c(C)c1	18	-2.33
O=S(=O)(NC1CCCC1Nc1ccccc1)c1ccc(Cl)cc1 (stereo not drawn)	4	-0.54
Cc1ccc(Oc2nc(N3CCN(C)CC3)nc3c2CN(S(=O)(=O)c2ccc(F)cc2)CC3)cc1	-6	0.95
Cc1csc(C2CN(C3CCc4ccccc4NC3=O)CCO2)n1 (stereo not drawn)	9	-1.24
Cc1n[nH]c(-c2ccc(S(=O)(=O)NC3CCC(C)CC3)o2)c1C (stereo not drawn)	-5	0.84
COc1cc2c(cc1OC)[C@H](c1cccnc1)N(Cc1cnn(C)c1)CC2	-12	1.27
Cc1noc(OCc2ccc(Cl)s2)n1	-1	0.16
Cc1cnc(CN2C[C@]3(CCCN(C(=O)CCC4CC4)C3)CCC2=O)cn1	-6	0.88
Cc1cccc(=O)n1CCC(=O)NC[C@H]1CCOc2ccccc2C1	0	0.04
Cc1ccc(-c2nc3n(CC(=O)N4CCOCC4)c(C)c(Cc4ccccc4)c(=O)n3n2)cc1	5	-0.6
O=S(=O)(C[C@H]1CCCOC1)NCc1ccccc1-c1ncc[nH]1	-5	0.8
Cc1ccccc1C(CC(=O)NCc1ccccc1)c1cnc2n1C(C)CCC2 (stereo not drawn)	-4	0.66
CC(C)NC(=O)N(Cc1ccc(F)cc1)Cc1ccccc1OS(=O)(=O)c1ccc(F)cc1	-10	1.18
CN1CCN(C(=O)c2cncc(NC[C@@H]3COc4ccccc4C3)n2)CC1	-17	2.54

Compound	% Inhibition [%]	Z score
CCc1nnc(N2CCC[C@H](c3nnc4ccccn34)C2)o1	-1	0.09
COc1ccccc1CNC(=O)CN1CC[C@@]2(CCCNC2=O)C1	-2	0.28
O=C(CNC(=O)c1ccc(Br)cc1Cl)Nc1cn[nH]c1	4	-0.68
O=C(NCc1ccc(Cl)cc1)c1nnsc1NC(=O)N1CCOCC1	-2	0.28
Cc1cc(C(=O)Nc2cccc3ccccc23)co1	1	-0.17
O=C(NCc1cc2n(n1)CCCO2)[C@H]1C[C@@H]1C(F)F	9	-1.02
Cc1cccc(NC(=O)c2cccc(OCc3cn4cccc(C)c4n3)c2)n1	-24	2.07
CCn1cc(S(=O)(=O)N2CC(n3cnnc3[C@@H]3CCCO3)C2)cn1	-8	1.22
Cc1nnc(CC(=O)N[C@H]2CC[C@H](CO)CC2)s1	-7	1.12
OC[C@@]12CCN(Cc3cccc(Cl)c3)C[C@@H]1CN(Cc1ccccc1)C2	-16	1.91
COc1ccc(-c2cc(C(=O)N[C@H]3CCCc4ccccc43)n(C)n2)c(OC)c1	-5	0.82
Cc1nc2ccccc2c(N2CCN3C(=O)NC[C@H]3C2)c1C	-9	0.82
CN(C(=O)c1cccc(OCC(F)F)n1)c1ccc(-c2ccccc2)nn1	-4	0.35
COc1ccc(Oc2nccc(-c3ccc(Cl)cc3)c2C#N)cc1	-4	0.61
CCCOc1ccc(-c2nn(-c3ccccc3)cc2CNS(=O)(=O)c2ccc(OC)cc2)cc1	-2	0.24
CN(Cc1ncccc1Cl)C[C@@H]1C[C@H](F)CN1c1ccnc(N(C)C)n1	-4	0.63
CCCCn1ncc(NC(=O)[C@@](C)(O)C2CCC2)c1CC	-9	1.26
CCc1noc(C)c1CNC(=O)C[C@H]1CCC(=O)N1C	-6	0.95
Nc1cc(C(=O)NC[C@H]2CC[C@H](CO)CC2)n[nH]1	-11	1.7
O=S(=O)(Cc1ccccc1)N1CCC(OCc2noc([C@@H]3CCCO3)n2)CC1	-9	1.25
Cc1nn(C)cc1NC(=O)N[C@H]1CCCOCC1	-6	0.98
